# Source: the supplement of paper PMC11417369
# Some of the results follow.
# Test system: PF3D7_0420300 AP2 domain 1 (GST-tagged)
# Experiment: gcPBM binding intensity (ln(normalized median fluorescence intensity)); higher = stronger DNA binding
# Method in brief: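 Using an Agilent 4 × 180k array, primer-extended double-stranded 36-bp intergenic genomic probes and negative controls were exposed for 1 h to GST-fused P. falciparum DNA-binding domains expressed in E. coli. Binding was carried out in 1× PBS with 1% milk, 0.2 mg/ml BSA, 0.5% salmon testes DNA and 0.03% Triton X-100, and protein was detected with Alexa488 anti-GST antibody and a 488 nm scan. Binding intensity is the highest Masliner-normalised natural-log median intensity across replicate spots of either probe orientation.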
row,Sequence,gcPBM binding intensity (ln)
1,TATGTGAATATAATCACACACAATACGGAAACCCAC [CACACA_site2725],9.77
2,AAAGTCTCATTAAAATGTACAAAATTTTCAGCTGTA [XGTACX_site6296],8.9
3,TAATTTTTAATTGTAGCATGCAGTATTTTTAAATAT [TGCATGCA_site140],8.97
4,ATTATCCATGCATTTACACACACACCCAAAAAAATT [CACACA_site4101],9.99
5,AAAGGGGCATATATATGTACATATTATATATTTTGA [XGTACX_site2436],9.18
6,ATTGTCTTCTCATATACACACTTTTATGACTATCTT [CACACA_site5696],9.64
7,TGTGTAATTATATATAAGGAGAAAGAATTCATTTTT [CACACA_negctrl_site670],9.12
8,ACAAAAAATAATCAAAATGTATATATATAATATAAT [XGTACX_negctrl_site593],9.27
9,TATTGAAGTTATAAAGTGCAGATAAATATGAGTTAT [GTGCAC_site9945],9.52
10,AAATGCCATATAATTTTTCTTAAACATAATTGTATA [CACACA_negctrl_site1665],9.07
11,ATATTTAATGTTAATTGTACATATTATATATATATA [XGTACX_site6095],9.23
12,ATAATATTATTATAATGTACATATTTCGATATAAAT [XGTACX_site8808],9.13
13,GATTATACAAAATATACACACGTGTAGACAAATATT [CACACA_site4785],9.71
14,ATATATATTAATAGGTGTACATATAAAGTGTTATGT [XGTACX_site5464],9.51
15,AAAAAAATATATATTACACACATATATACCTATATA [CACACA_site5688],9.56
16,AAAAAAAAATTTTTAAAATTTAGAAAATTTAAAAAA [GTGCAC_negctrl_site649],8.63
17,TAATAATGCAACCTCTGTACACAACATTATATCCAT [XGTACX_site7596],9.41
18,TATATATAAGCGTGTACACATTCTGAGTGTTGTATA [CACACA_site4502],9.34
19,ATTATTTTTTTATGTTGTACATAATATTTTTTAAAA [XGTACX_site1666],9.06
20,ATATATATGGATGGACGTACGTATGTATGTAATTTC [XGTACX_site4135],9.44
21,TAATATTTATAAAATAGTACACAGAAAAAGCATTTT [XGTACX_site8948],9.23
22,TTCCAACATTGTTTTTGTACATAATTAACTGTTATT [XGTACX_site5224],9.43
23,CTTAAAAATAACTGCACACAAAAATAAATACCTTAT [CACACA_site2793],9.55

row,Sequence,gcPBM binding intensity (ln)
1,GAAAAAATATATAAATGTACATATAATAATATCATA [XGTACX_site6788],9.3
2,ATATATATTTTATTATGTACATATAAATATTACACA [XGTACX_site4062],9.12
3,AACAAATAAACAAAATTGGAAAATAAAAATATCAAA [CACACA_negctrl_site1125],9.37
4,TCGTATATGGATTTTGCACACAATTTTAATTTAAAT [CACACA_site4635],9.5
5,ATGATTTGTCTGAAATGTACATATATATATATATAT [XGTACX_site5247],9.18
6,TTTTTTTTTTTTTTAATTAATTACCTTTGAATGTGT [CACACA_negctrl_site393],9
7,TAATAATTTTATAAAGTGCATAAAAATAAAAATTTT,9.01
8,AAAAAAGAATAGCACACACACATATATAAATATAAA [CACACA_site4518],9.92
9,TTTTTTTTTTTTTGTGCATGTAGATTTATTGTTATA [TGCATGCA_site582],9.32
10,TTTAAATATATATTTAGTACTTATTCTTAAAATTTT [XGTACX_site624],9.02
11,GTAGAGGATTAAGAATGTACACATAAATACATATTT [XGTACX_site8874],9.2
12,AATTATACATACATATATATATTTATATATATATAT [GTGCAC_negctrl_site462],9.18
13,GTTACATACAGATACACACACATATATATATATATA [CACACA_site4652],9.81
14,AAAAAAAAATATATATAAAATTAAAAAATGTAATAT [GTGCAC_negctrl_site581],9.37
15,ATGGGTTGTTCAAATAGTACATATGTAGCCCACCAT [XGTACX_site3735],9.21
16,ATTAAAAAAAAAAGTATACACACTTCTTAATGTCAA [CACACA_site1244],9.19
17,TTATATCCCGTCCTTTATTAAAAAAATTTTTTTTCT [TGCATGCA_negctrl_site582],9.22
18,ATAATAAGGTTAAGCACACATATTACAGATATAACT [CACACA_site5791],9.49
19,AAATATTATGTGGCAAGTACATAAAGAAAATGCTTA [XGTACX_site3356],9.26
20,AATAATAATAATAATAGTACATATTATGAATATGAT [XGTACX_site5730],9.31
21,ATAAATATGGAGCACACACACATAAACATACCTATA [CACACA_site6336],10
22,GATCTACATGAAAGGACACACAAATATATATATATA [CACACA_site84],9.44
23,TTAAAAATGATTGAATGTACAGATTAATATAATTTT [XGTACX_site7394],9.16

row,Sequence,gcPBM binding intensity (ln)
1,TAATTTTTGAAACACACACACATATATATATATATA [CACACA_site94],9.71
2,AAGTTAACACAACAGGTGCAAGAAAAGTTTTTAATG,9.25
3,ATCAAGCACGGACACACACACACACCCAGACCCCCA [CACACA_site4360],10.1
4,TATGGTATATACAACACACACACATATGTATATATA [CACACA_site927],9.92
5,TCTTTAATATATAGTGCATGTAAATTTTACAATAAT [TGCATGCA_site242],9.13
6,AGTTAATGTTTATGTACACACGGTGGGTATATATTT [CACACA_site5785],9.59
7,TGCAACAAAATAAACACACACACACTAACACAAAAA [CACACA_site7567],10.1
8,TTTAAAAATAAAAGTACACACATAAACATATTGCAC [CACACA_site6784],9.68
9,TTTTCATTTGAAAGTCGTACAAGTTCGAAAAAAGGA [XGTACX_site6840],8.96
10,CTTAAAAAAACCTTAACACACATAAACTATAATTTA [CACACA_site3055],9.42
11,ATATTATATATATGTGCACACAAAAGATATATATAT [CACACA_site2125],9.7
12,ATAAGCAATAAAAAAACATGCATATTATTATCAACA [TGCATGCA_site1027],9.4
13,TTAAATAGAAATAAGACTAACAATGAACCAAAAAAA [CACACA_negctrl_site991],9.55
14,TTTTGAAAAAGTTGCACACAAAATTTAAAAAAAAAA [CACACA_site1632],9
15,ATATATATATATATATATATAATTTTTTTTGTTTTT [TGCATGCA_negctrl_site453],9.05
16,GATATCAAAAAGATGGGTACATATATTTAAGTTCAT [XGTACX_site3822],9.27
17,TATATTATTAATTAGGGTACAAAAAAAAAATTTTTT [XGTACX_site7762],8.89
18,TAGGAAAAGAAAAGCACACACATAAATAGATATATA [CACACA_site6382],9.91
19,AAAAAAAAAATTTAGGTGCATACAAATAAATTATAT [GTGCAC_site9521],9.26
20,AGCAGTCAGCAGGACAGTACACAGTAGCCAGGAAAT [XGTACX_site4877],9.23
21,TTATTCTAAAAAGGGTGTACACAAACGAATGGAAAA [XGTACX_site5662],9.43
22,ATGGCTAAAAGTTGCACACACACAAAAAAAAAAAAA [CACACA_site3289],9.69
23,TATATATTAATATGCACACACAAGAAGTAATTATAA [CACACA_site3193],9.8

row,Sequence,gcPBM binding intensity (ln)
1,GGCATACACGGACACACACACACACCGACATATATA [CACACA_site4493],10.3
2,ATTATATAACAAAATAGTACATATATTTATTACATC [XGTACX_site336],9.26
3,TGCACAAAATTATGCACACACCTAAAATTAATTTTT [CACACA_site5596],9.46
4,GGCAATGATTTTAGGTGTACTTAAAAATCAAATTAA [XGTACX_site8587],8.85
5,ATTCTAATCATATACACACCCATATATATATATATA [CACACA_site1774],9.53
6,TATAAAAAATAAAATACACACACATATATATATATA [CACACA_site8365],9.79
7,TAATTTCTTATGTGCTATCTTATATAGAATTAATTT [CACACA_negctrl_site1726],9.07
8,TATGTTGGTTCTTTTAGTACATAATTACTAAATGTA [XGTACX_site8616],9.28
9,CAAACTACAAAATTTCGTACGCATATATTTCAAGTA [XGTACX_site5154],9.23
10,AAAACATACATATATACACACATATATATATATATA [CACACA_site1852],9.57
11,CAAAAAAGTAAAACGTGTACATATATACATAAAAAT [XGTACX_site5639],9.68
12,TTTAAACGTTATATAGTGCATGTCATATTTTATTAT,9.27
13,TACGTAATAATATGCACACAAATAAACTTTATAAAT [CACACA_site3501],9.55
14,CTTTTTTATATCTCTACACACATTTATAACAATTTG [CACACA_site1398],9.7
15,TATATACATTTATATACACACCTATATTTATTTATA [CACACA_site7014],9.46
16,ATTATATATATTTATGCACACAAAATATATTATATA [CACACA_site9244],9.29
17,TTTTTTTAACGGTGTGCACACAATATACAGAAAAAA [CACACA_site1415],9.48
18,TATATTGAAAATAAAACATGCAATCACTCATACATA [TGCATGCA_site248],9.36
19,CAACAATTTCGTCATACACACATTCAGAATCTATAT [CACACA_site7171],9.57
20,ATGTACCTATTTCATACACACACACCCACAAACAAA [CACACA_site8232],10
